Data: PubChem BioAssay AID1645887 (National Center for Advancing Translational Sciences (NCATS), 2021)
“And” between values parts separate entries of the source, which are not always exact repeats. Identical values can stand only once. The campaign covered roughly 16,000 compounds. About 40 (0.2%) were called active. Roughly 1% stayed inconclusive and do not appear here. The call rests on the fitted dose curve; in most records, active means well fitted activation curve with a large enough effect; inconclusive means small, poorly fitted or top-dose-only effect, or another doubt; inactive means no such curve, though single readings can be large or run the other way. The list shows a part of the results.

The molecules below were run against Rap guanine nucleotide exchange factor 4 (Homo sapiens) (UniProt Q8WZA2) (assay: Validation qHTS for agonist of cAMP-regulated guanine nucleotide exchange factor 4 (EPAC2)). Conditions: EPAC2 Rap1B BODIPY-GDP exchange, fluorescence; activation: stronger effect = higher value.
UniProt Q8WZA2, sequence (Q8WZA2 whole entry, looked up): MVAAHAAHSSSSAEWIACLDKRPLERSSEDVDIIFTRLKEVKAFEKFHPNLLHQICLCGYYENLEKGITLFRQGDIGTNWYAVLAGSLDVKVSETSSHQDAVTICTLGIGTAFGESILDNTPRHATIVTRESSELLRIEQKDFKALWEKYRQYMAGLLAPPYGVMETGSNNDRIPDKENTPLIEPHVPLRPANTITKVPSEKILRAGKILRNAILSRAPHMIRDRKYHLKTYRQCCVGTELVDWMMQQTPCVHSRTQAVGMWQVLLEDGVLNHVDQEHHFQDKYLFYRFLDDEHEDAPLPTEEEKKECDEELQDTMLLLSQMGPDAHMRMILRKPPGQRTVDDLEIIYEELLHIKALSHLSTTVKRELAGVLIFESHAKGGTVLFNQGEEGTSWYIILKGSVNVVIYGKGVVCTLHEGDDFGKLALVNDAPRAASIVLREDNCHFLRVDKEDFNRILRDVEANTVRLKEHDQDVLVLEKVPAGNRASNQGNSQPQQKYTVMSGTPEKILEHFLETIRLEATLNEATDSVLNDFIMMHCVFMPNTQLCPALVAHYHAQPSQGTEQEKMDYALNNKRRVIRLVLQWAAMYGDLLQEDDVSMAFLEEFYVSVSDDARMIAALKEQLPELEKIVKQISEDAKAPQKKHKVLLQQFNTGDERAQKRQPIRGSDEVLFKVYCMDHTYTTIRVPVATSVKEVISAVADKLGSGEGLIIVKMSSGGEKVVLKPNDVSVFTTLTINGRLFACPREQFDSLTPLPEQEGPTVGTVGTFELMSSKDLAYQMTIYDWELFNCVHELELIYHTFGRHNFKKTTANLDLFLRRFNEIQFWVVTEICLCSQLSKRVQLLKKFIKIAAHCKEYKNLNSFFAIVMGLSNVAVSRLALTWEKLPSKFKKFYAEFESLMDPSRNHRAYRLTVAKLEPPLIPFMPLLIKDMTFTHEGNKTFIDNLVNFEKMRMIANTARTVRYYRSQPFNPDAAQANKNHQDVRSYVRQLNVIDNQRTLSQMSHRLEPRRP
Summary of the method: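 Signal normalized against 6.5 mM cAMP as agonist control. Mix of EPAC2 (100 nM), RAP1B-BODIPY-GDP (250 nM) and GDP (50 uM) was read kinetically at 480/540 nm, every 5 min over 30 min, after 5 min room-temperature incubation with compound.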
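Further: exchange makes BODIPY-GDP fluorescence drop when released from Rap1B; series mostly up to about 150 µM.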
On the % scale 0 is the no-effect control and ±100 the full control effect.

activation, inactive:
CN1CCN(c2ncc3ncc(=O)n(C4CC4)c3n2)CC1 10.9%
COc1cc(O)c(C(=O)/C=C/c2ccccc2)c(OC)c1 12.8%
CN(C)C(=O)c1ccc(-c2nc(NC3CCNCC3)c3ccccc3n2)cc1 -19.4%
COc1cc(-c2noc(C)c2C#CC2(N)CCCCC2)cc(OC)c1OC -9.27%
CCCCOC(=O)c1cc2c(cn1)[nH]c1ccccc12 -31.7% and 7.86% and -9.86%
O=C(O)c1ccccc1Nc1cccc(C(F)(F)F)c1 -18.2% and -12.3%
OCCc1ccccc1 -1.25%
O=C(c1ccc(F)cc1)C1CCN(CCn2c(=S)[nH]c3ccccc3c2=O)CC1 -25.6%
COc1cc(C/C=C\c2ccccc2)c(OC)cc1O -36.7%
COc1ccc(CCCO[C@@H](Cn2ccnc2)c2ccc(OC)cc2)cc1 -10.1%
CC(C)NC(=O)N1CC[C@@]2(CCCN(C(=O)c3cnccn3)C2)C1 -17%
O=C(NCCN1CCOCC1)c1cnn(-c2nccc(-c3ccccc3F)n2)c1C1CC1 2.5%
O=c1c(CCc2ccccc2)nc2cnc(N3CCOCC3)nc2n1C[C@H]1CCCO1 -16.2%
O=C(c1cnsn1)N1CCOc2ccc(CN3CCOCC3)cc2C1 3.85%
CS(=O)(=O)N1CCC2(CCN(c3ccccn3)CC2)CC1 -2.33%
COc1cccc(CNC(=O)c2c(OC)cc(=O)n3c2CCN(C(=O)c2ccc(C)nc2)CC3)c1 0.453%
CCCCC/C=C\C/C=C\C/C=C\CCCCC(=O)O -19.5%
O=C(O)Cc1cc2ccccc2nc1C(=O)O -8.23%
COCC1CCCN(Cc2ccc3c(c2)CN(C(=O)c2ccc(OC)nc2OC)CCO3)C1 (stereo not given) -17.1%
N#Cc1cccc(-c2nccc(-n3ccnc3)n2)c1 1.09%
COCCNc1nc(-c2ccccc2OC)nc2ccccc12 2.95%
Cc1cccc(C)c1OCC(=O)N[C@@H](Cc1ccccc1)[C@@H](O)C[C@H](Cc1ccccc1)NC(=O)[C@H](C(C)C)N1CCCNC1=O -1.22%
CN(Cc1ccco1)Cc1cc(-c2ccnc3cc(Cl)ccc23)ccc1O -1.43%
Nc1ncnc2c1ncn2[C@H]1O[C@@H](CSCC[C@@H](N)C(=O)O)[C@H](O)[C@@H]1O 10.3%
O=C1O[C@H]([C@@H](O)CO)C(O)=C1O -0.197% and -3.05%
CN(C)c1ccc(C(=C2C=CC(=[N+](C)C)C=C2)c2ccccc2)cc1 -24.7%
COCCn1c(=O)c(-c2ccccc2)nc2cnc(N3CCN(C)CC3)nc21 -4.94%
CCNCCCNCCCNCCCNCC -20.4%
Clc1ccc(C(c2ccccc2Cl)C(Cl)Cl)cc1 (stereo not given) -34% and 17.4% and -1.36%
CN(C)c1ccc(-c2c(-c3ccc4c(c3)OCO4)noc2-c2ccsc2)cn1 -12.9%
CC(N)(C(=O)O)c1ccc(-c2nn[nH]n2)cc1 (stereo not given) -4.44%
O=C(NCC1CCC2(CCN(Cc3ccc4ncccc4c3)CC2)O1)C1CCCO1 (stereo not given) -1.31%
COc1ccc(C(=O)N(Cc2cc3cccc(C)c3nc2N(C)C)CC2CCCO2)cc1 (stereo not given) -3.26%
Cc1ccnc2ccc3ccccc3c12 -6.66%
O=C(Nc1cccc(F)c1)N1CC[C@@]2(CCCN(C(=O)c3cnccn3)C2)C1 -17.9%
COc1ncc2nc(-c3cn(C)c4ccccc34)c(=O)n(C)c2n1 -9.74%
CCCCN1CCCC[C@H]1C(=O)Nc1c(C)cccc1C -2.2%
Clc1ccccc1-c1nc(NCc2cccs2)c2ccccc2n1 6.74%
COc1ccc(CNc2cc(-c3ccccc3C)ncn2)c(OC)c1 -5.51%
CCOc1nc2cccc(C(=O)O)c2n1Cc1ccc(-c2ccccc2-c2nn[nH]n2)cc1 -14.1%
CS(=O)(=O)c1ccc(-c2cccc3c2OC(CNC(=O)c2cc(C4CC4)[nH]n2)C3)cc1 (stereo not given) -12.4%
O=C1CC[C@@H](O)CCN1CC[C@H](Sc1ccccc1)c1ccccc1 -7.18%
COc1ccccc1CN1CCCC2(CCN(C(C)=O)CC2)C1 -6.88%
CCCCCCCCCCCCCCCCCCNC(=O)OCC(COP(=O)([O-])OCC[n+]1ccsc1)OC (stereo not given) -37.5%
Cc1ncc(CO)c(CN)c1O 0.776%
O=C(c1ccccc1)c1ccccc1 -7.37%
COc1cccc(Cn2c(=O)c(-c3cccc(Cl)c3)nc3cncnc32)c1 -6.61%
O=C1Nc2ccc(Cl)cc2[C@@](C#CC2CC2)(C(F)(F)F)O1 -26.5%
C=CCN1[C@@H](C(C)C)COCCS1(=O)=O -14.3%
Cc1cc(=O)c2c(O)cc(O)c(C)c2o1 3.27%
O=C(NC[C@@H]1CCCN2CCCC[C@H]12)c1cnn(-c2nccc(-c3ccco3)n2)c1C1CC1 -13%
O=C(c1cccc(F)c1)N1CCC2(CCCN(Cc3cc(C(F)(F)F)cc(C(F)(F)F)c3)C2)CC1 1.39%
c1ccc2sc(N3CCN(Cc4ccc5c(c4)OCO5)CC3)nc2c1 -1.49% and 12.1%
N#CCCn1c(=O)c(-c2cc(F)cc(F)c2)nc2cnc(Oc3ccccc3)nc21 -3.24%
Nc1ccc(C(=O)O)c(O)c1 -14% and 9.02%
CN(Cc1ccco1)c1ncncc1-c1ccc2c(c1)OCO2 3.53%
CC(C)NC(=O)N1CC[C@@]2(CCCN(C(=O)c3cccn3C)C2)C1 2.34%
Cc1c(CCO)sc[n+]1CC(=O)c1ccccc1 -25.7%
CC(O)(COc1ccccc1)c1ccc2c(c1)CN(C/C=C/c1ccco1)CCO2 (stereo not given) -13.2%
NCCCS(=O)(=O)O -14.1% and -24.5%
Cc1cnc(C)c(-c2cccc3c2OC(CNC(=O)/C=C/c2ccncc2)C3)n1 (stereo not given) 5.86%
O=c1cc(/C=C/c2ccc([N+](=O)[O-])cc2)c2ccccc2[nH]1 -9.19%
O=C(c1ccco1)N1CCC2(CCCN(c3ccccn3)C2)CC1 -10.7%
CC(C)C[C@@H](CN=[N+]=[N-])N1CCN(Cc2ccccc2)CCC1=O -12.9%
O=C(O)C(Cc1cc(I)c(O)c(I)c1)c1ccccc1 (stereo not given) -0.77%
CC(C)CCC[C@@H](C)[C@H]1CC[C@H]2[C@@H]3CC[C@@H]4C[C@H](O)CC[C@]4(C)[C@H]3CC[C@]12C -0.92%
C=CCN1CCc2cc(O)c(O)cc2C(c2ccccc2)C1 (stereo not given) -7.96%
c1ccc2c(NC3CCNCC3)nc(-c3ccoc3)nc2c1 -18.5%
O=C(C[n+]1cccc(Br)c1)c1ccc(I)cc1 -19.1%
Nc1ncnc2nc[nH]c12 1.63%
O=C(CN1Cc2ccccc2OC(c2ccsc2)C1)NCc1ccc2c(c1)OCO2 (stereo not given) -3.16%
O=C(NCCCCCCNC(=O)ON=C1CCCCC1)ON=C1CCCCC1 -1.9%
COc1ccccc1C1CN(Cc2cnn(C)c2)Cc2ccccc2O1 (stereo not given) -14.7%
C=CCCCCCCCCCCCC(O)CC(O)CO (stereo not given) (tested in a mixture with another compound) -54.4%
C[N@+]12CCCC[C@@H]1CCC(=C(c1cccs1)c1cccs1)C2 -8.47%
Nc1nc(/C(=C/CC(=O)O)C(=O)N[C@@H]2C(=O)N3C(C(=O)O)=CCS[C@H]23)cs1 -7.71%
O=C(Oc1ccccc1)N1CCC[C@@]2(CCN(c3ccncc3)C2)C1 0.271%
CCc1cc(Cl)c(OC)c(C(=O)NC[C@@H]2CCCN2CC)c1O -3.37% and -10% and -5.33%
COCCn1c(=O)c(-c2cccc(Cl)c2)nc2cncnc21 -12.4%
CN(C)CCOC(=O)C(c1ccccc1)C1(O)CCCC1 (stereo not given) 9.63%
C[N+]1(C)C2CC(OC(=O)[C@H](CO)c3ccccc3)CC1C1OC12 (stereo not given in full) -65% and -35.6%
CCCCN1CC[C@H]2C=CC[C@@H](C(=O)NCCc3ccccc3)[C@H]2C1=O -16.7%
Cc1cnc(-n2ncc(C(=O)NCC(C)(C)N3CCOCC3)c2C(C)C)nc1-c1ccc(F)cc1 -1.78%
COc1ncc2nc(-c3ccc(Cl)cc3)c(=O)n(Cc3cccs3)c2n1 3.09%
O=C(O)c1ccc2c(c1)OCO2 -21.8%
COc1ccc(-n2c(=O)c(-c3ccc(F)c(F)c3)nc3cncnc32)cc1 -14.3%
O=C(/C=C/c1ccccc1)c1ccc(O)cc1 -8.85%
CN(Cc1ccco1)c1cc(-c2ccccc2Cl)ncn1 -2.47%
COc1ccc(CN2CC[C@H]3C=CC[C@@H](C(=O)Nc4ccc(Cl)c(C(F)(F)F)c4)[C@H]3C2=O)cc1OC -25.8%
Nc1[nH]c(=O)ncc1F 1.38%
